The data set concerns the molecule itself. Put plainly: cross-linking; in-cell p53 oligomerization assay: lysates of transfected, knock-down or UV-exposed cells (HEK293T, MCF12A, MCF7; MG132 before harvest) cross-linked with glutaraldehyde 0.005%; SDS gel, anti-p53 (FL393) or anti-myc blot.

The source of these data is paper PMC4575918, “Regulation of p53 oligomerization by Ras superfamily protein RBEL1A” (Genes & Cancer, 2015).

B1: C-terminus of p53 corresponding to […] (His-tagged copy and Myc-tagged copy) (domain or fragment)
chain: not shown
notes: Two separate constructs with the same limits: one copy has only the His-tag, the other only the Myc-tag; no chain has both; source: HEK293T, transfected, in lysate; not shown: His-tag, C-terminal, kept; Myc-tag, C-terminal, kept
For the protein B1, the “stoichiometry N” value came to 4.
